# Hit rate of the full screen: of about 310,000 compounds, about 2,200 (0.71%) showed an effect of 50% or more. The effect is printed as a negative number. The list shows a part of the results.
# Biological target: human ether-à-go-go-related gene (hERG) potassium channel (human, UniProt Q12809)
# Assay: primary screen, population patch clamp on CHO cells stably expressing hERG
# human ether-à-go-go-related gene (hERG) potassium channel, sequence (Q12809 whole entry, looked up): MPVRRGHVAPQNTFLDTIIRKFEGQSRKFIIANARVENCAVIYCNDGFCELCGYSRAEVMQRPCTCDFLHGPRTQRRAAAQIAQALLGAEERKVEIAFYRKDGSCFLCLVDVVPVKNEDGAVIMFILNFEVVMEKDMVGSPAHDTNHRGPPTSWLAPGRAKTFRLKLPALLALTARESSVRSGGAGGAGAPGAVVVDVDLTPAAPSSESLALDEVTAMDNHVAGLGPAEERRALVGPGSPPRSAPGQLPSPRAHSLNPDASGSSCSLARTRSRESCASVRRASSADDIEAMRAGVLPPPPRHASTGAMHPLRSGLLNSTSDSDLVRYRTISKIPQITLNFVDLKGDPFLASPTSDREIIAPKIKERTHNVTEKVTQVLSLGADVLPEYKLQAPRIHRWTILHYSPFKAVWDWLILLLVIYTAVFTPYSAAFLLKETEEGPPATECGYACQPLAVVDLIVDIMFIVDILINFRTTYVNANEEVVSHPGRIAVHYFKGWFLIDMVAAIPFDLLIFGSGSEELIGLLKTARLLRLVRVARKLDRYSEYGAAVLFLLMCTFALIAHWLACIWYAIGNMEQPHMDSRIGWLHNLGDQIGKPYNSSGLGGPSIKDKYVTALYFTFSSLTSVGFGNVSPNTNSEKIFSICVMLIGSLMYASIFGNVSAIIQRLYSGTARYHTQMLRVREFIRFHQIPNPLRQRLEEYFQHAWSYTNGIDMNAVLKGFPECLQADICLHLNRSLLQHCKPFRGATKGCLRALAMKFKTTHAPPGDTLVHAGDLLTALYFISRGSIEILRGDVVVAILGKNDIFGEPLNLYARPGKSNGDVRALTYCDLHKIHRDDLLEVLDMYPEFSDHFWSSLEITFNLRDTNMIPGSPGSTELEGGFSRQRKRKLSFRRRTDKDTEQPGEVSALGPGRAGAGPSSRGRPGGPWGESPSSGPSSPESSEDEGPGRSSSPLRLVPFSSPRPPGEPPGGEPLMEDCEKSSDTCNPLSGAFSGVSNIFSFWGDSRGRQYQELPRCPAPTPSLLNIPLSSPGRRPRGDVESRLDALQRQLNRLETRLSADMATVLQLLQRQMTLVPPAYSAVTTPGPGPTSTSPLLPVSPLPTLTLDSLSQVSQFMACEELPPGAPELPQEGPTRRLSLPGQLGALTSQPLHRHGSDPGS
row,Compound,"hERG current change (%, negative = inhibition) at 1uM"
1,Cc1[nH]c2ccccc2c1C(=O)/C=C/c1ccccc1,12.4%
2,COc1ccc(C(c2nnnn2C2CCCC2)N2CCC(C)CC2)cc1.Cl (stereo not drawn),10.2%
3,O=C(Cc1cccs1)N1CCN(S(=O)(=O)c2cc(Cl)ccc2Cl)CC1,-4.16%
4,CCOC(=O)N1CCN(C(=O)CSCC(=O)Nc2nc(-c3ccc(-c4ccccc4)cc3)cs2)CC1,12.2%
5,Cc1n[nH]c(=O)c2c(NC(=O)CSc3nnc(-c4ccco4)n3C)oc(C)c12,14%
6,Cc1ccc(C)c(C(=O)COC(=O)C2CCN(c3ccc(C(F)(F)F)cn3)CC2)c1,9.97%
7,CCOc1cccc(C(=O)NC(=S)Nc2ccc3c(c2)OCCO3)c1,8.92%
8,CCC1=C2CC[C@H]3C(=O)N(CC)C(=O)[C@H]3[C@H]2[C@@]2(Cc3ccccc3)C(=NCCOC)OC(=O)N2C1=O,10.3%
9,Brc1nc(Br)n(Cc2ccccc2)n1,18.9%
10,CNC(=O)c1ccccc1-c1cn(C)c2ccccc2c1=O,11.7%
11,COc1ccccc1C(=O)Nc1nc(-c2cccs2)c(NC(C)=O)s1,11.8%
12,O=c1c2cc(Br)ccc2nc(-c2cccc(Cl)c2)n1O,15.3%
13,O=C(C1CC1)N1CCN(S(=O)(=O)c2ccc3c(c2)OCCO3)CC1,8.98%
14,CN(C)C(CNC(C(=O)Nc1ccc([N+](=O)[O-])cc1Br)c1ccccc1)c1ccccc1 (stereo not drawn),11.9%
15,O=c1[nH]ncc(N/N=C\c2cccs2)c1Cl,10.8%
16,CC1(C)CC(=O)C2=C(C1)Nc1ncnn1C2c1cccs1 (stereo not drawn),9.58%
17,O=C(NCC(c1ccco1)N1CCc2ccccc2C1)c1ccc(Cl)c([N+](=O)[O-])c1 (stereo not drawn),-4.88%
18,O=C(COc1cccc2c1CCNC2=O)NC1CCCCC1,1.78%
19,COc1cccc(OCCCN2CCCCCC2)c1.O=C(O)C(=O)O,-11.5%
20,COc1ccc(Cc2nc(C(=O)NCc3ccccc3OC)cs2)cc1,6.14%
21,Cc1ccc(-c2cc([C@H]3[C@@H]4C=CCC[C@@]4(C)C(=O)N3Cc3ccccc3)ccc2F)cc1,11.5%
22,Cc1c(NC(=O)c2noc3c2CCc2ccccc2-3)c(=O)n(-c2ccccc2)n1C,-43.4%
23,O=C(/C=C/c1ccc(OCc2cccc(Cl)c2)cc1)N1CCOCC1,9.66%
24,N#Cc1ccc2c(c1)NC(=O)C1CCCN21 (stereo not drawn),6.21%
